The text below walks through data of PubChem BioAssay (NCI).

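Interpolation was linear, between the two tested concentrations surrounding the appropriate level; five concentrations were tested over 48 hours in 96-well plates. Abbreviation: GI50, concentration required for 50% inhibition of growth.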 Not every entry of the source has a single result; some have several. The other results are left out here. There may be further records. Records of one sample usually come from different ranges of test concentrations, which the source does not state; some values may only mark the edge of a range.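 TGI is the concentration that stops growth completely.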 Signs of the kind (2×) count equal records among those shown.

What all share (experiment): NCI tumour cell line growth inhibition, 48 h
Experiment [1] concerns MOLT-4 leukemia.
The subject of experiment [2] is NCI-H226 lung.
Experiment [3] has as its system CCRF-CEM leukemia.
In experiment [4] the test system is UACC-257 melanoma.
Experiment [5] relates to OVCAR-8 ovarian.
The test system of experiment [6] is XF 498 CNS.
In experiment [7] the test system is M19-MEL melanoma.
The test system of experiment [8] is DU-145 prostate.
Experiment [9] relates to CAKI-1 renal.
In experiment [10] the test system is UO-31 renal.
In experiment [11] the test system is MALME-3M melanoma.
Experiment [12] concerns UACC-62 melanoma.
Experiment [13] relates to SF-539 CNS.
Experiment [14] has as its system DLD-1 colon.
For experiment [15], the system named is HCC-2998 colon.
In experiment [16] the test system is HOP-18 NSCLC.
Experiment [17] has as its system MCF7 breast.
The test system of experiment [18] is OVCAR-5 ovarian.
Experiment [19] has as its system SNB-19 CNS.
Experiment [20] has as its system SK-OV-3 ovarian.
In experiment [21] the test system is HOP-62 NSCLC.
Experiment [22] concerns SK-MEL-2 melanoma.
Experiment [23] deals with NCI-H460 lung.
Experiment [24] has as its system A498 renal.
The test system of experiment [25] is HCT-116 colon.
The subject of experiment [26] is SK-MEL-28 melanoma.
The subject of experiment [27] is HL-60(TB) leukemia.
In experiment [28] the test system is NCI-H23 lung.
Experiment [29] has as its system SF-295 CNS.
In experiment [30] the test system is P388 leukemia.
For experiment [31], the system named is DMS 114 small cell lung.
For experiment [32], the system named is OVCAR-3 ovarian.
The subject of experiment [33] is K-562 leukemia.
The subject of experiment [34] is NCI-H522 lung.
In experiment [35] the test system is RPMI-8226 leukemia.
In experiment [36] the test system is HOP-92 NSCLC.
The test system of experiment [37] is ACHN renal.
Experiment [38] has as its system DMS 273 small cell lung.
Experiment [39] deals with COLO 205 colon.
In experiment [40] the test system is SNB-78 CNS.
Experiment [41] concerns SN12K1 renal.
For experiment [42], the system named is 786-0 renal.
Experiment [43] concerns LOX IMVI melanoma.
Experiment [44] concerns HCT-15 colon.
Experiment [45] concerns KM12 colon.
Experiment [46] has as its system SW-620 colon.
Experiment [47] deals with SF-268 CNS.
Experiment [48] deals with OVCAR-4 ovarian.
For experiment [49], the system named is SK-MEL-5 melanoma.
For experiment [50], the system named is SN12C renal.
Experiment [51] has as its system U251 CNS.
The test system of experiment [52] is HT29 colon.
Experiment [53] relates to HS 578T breast.
Experiment [54] relates to RXF 393 renal.
Experiment [55] deals with SNB-75 CNS.
Experiment [56] has as its system EKVX NSCLC.
Experiment [57] deals with A549 NSCLC.
For experiment [58], the system named is PC-3 prostate.
For experiment [59], the system named is NCI/ADR-RES ovarian.
For experiment [60], the system named is IGROV1 ovarian.
In experiment [61] the test system is KM20L2 colon.

Regarding `COc1cc(C2c3cc4c(cc3[C@@H](Nc3ccc(N(C)C)cc3)[C@H]3COC(=O)C23)OCO4)cc(OC)c1O` (some centres undefined), the TGI in [1] is 872 nM and 13 µM; in experiment [2] it was 438 nM and 7.68 µM; in experiment [3], 75 µM and 741 nM.

Take `CN1CCCN(CCNc2nccc(-c3c(-c4cccc(O)c4)nc4sccn34)n2)S1(=O)=O`: in [4], the TGI was 2.57 µM [1 test] and > 35.7 µM [mean of 2 tests]. In addition, in experiment [5], the GI50 was 7 µM and 177 nM; the TGI is 63.2 µM and 5.53 µM.

As for `COC1C(O)CC(OC2CC(Oc3cc4cc5c(c(O)c4c(O)c3C)C(=O)[C@@H](OC3CC(OC4CC(OC6CC(C)(O)C(OC(C)=O)C(C)O6)C(O)C(C)O4)C(O)C(C)O3)[C@H]([C@H](OC)C(=O)[C@@H](O)[C@@H](C)O)C5)OC(C)C2OC(C)=O)OC1C` (some centres undefined), the TGI in experiment [6] was 0.00832 nM and 5.61 nM; in [7], 0.0363 nM and 37.2 nM; in experiment [8], 2.66 nM and 1.02 µM; in experiment [9] it was 0.884, 1.97, 673, 26 nM; in experiment [10], 0.188, 1.87, 510, 111 nM; in experiment [1], 0.0823, 0.159, 194, 121 nM. The TGI is 0.00564 nM, 0.0911 nM, 6.4 nM in [11]; 0.0196 nM, 0.0349 nM, 4.7 nM in experiment [12]; 0.027 nM, 0.252 nM, 4.16 nM in experiment [13]; 5.03 µM and 174 nM in experiment [14]; 0.0263 nM, 0.0745 nM, 4.13 nM, < 11 nM in experiment [15]; 0.475 nM and 215 nM in experiment [16]. Besides, the TGI was 0.233 nM and 1.6 µM in experiment [17]; 0.696 nM, 55.2 nM, 14.1 nM in experiment [18]; 0.453 nM, 1.08 nM, 25 µM, 6.41 µM in experiment [19]; 2.39 nM, 4.14 µM, 8.78 µM in experiment [20]; 0.044 nM, 0.214 nM, 8.71 nM in [21]; 0.00501 nM, 0.0308 nM, 6.81 nM in [22]. The TGI is 0.876, 0.308, 195, 116 nM in experiment [23]; 0.0228 nM, 0.0551 nM, 14.8 nM in experiment [24]; 7.44 nM, 9.49 µM, 2.66 µM in [25]; 0.513 nM, 0.0732 nM, 6.1 nM in experiment [26]; 0.215, 0.163, 32.9, 20.3 nM in [27]; 0.0249 nM, 0.213 nM [mean of 4 tests] and 196 nM [mean of 5 tests] in experiment [28]. For the same molecule, the TGI in experiment [29] was 0.0232 nM, 0.426 nM, 23.6 nM (2×); in [2], 0.0174 nM, 1.96 nM [mean of 3 tests] and 10.8 nM [mean of 4 tests]; in [30], < 37.9 nM [mean of 2 tests] and 0.0845 nM [mean of 4 tests] and 123 nM [mean of 5 tests]; in experiment [31], 0.0977 nM and 6.28 nM; in experiment [32], 0.0255 nM, 0.286 nM, 145 nM, < 46.4 nM; in [33], 0.299 nM, 0.621 nM, 1.38 µM, 4.53 µM. The TGI in [3] is 0.207, 0.661, 310, 35 nM; in [34] it was 0.179 nM, 0.0409 nM, 6.67 nM; in [35] it was 0.149, 0.151, 8.61, 367 nM; in [36], 0.0307 nM, 0.172 nM, 8.32 nM, < 11.5 nM; in experiment [37], 3.92 nM and 255 nM; in experiment [38] it was 0.0897 nM [mean of 4 tests] and 4.6 nM [mean of 5 tests]. In addition, the TGI in experiment [39] is 0.103 nM [mean of 4 tests] and 0.00946 nM [mean of 5 tests] and 6.44 nM [mean of 6 tests]; in experiment [40], > 84.4 µM [mean of 3 tests] and 418 nM [mean of 6 tests]; in experiment [41] it was 0.0317 nM [mean of 3 tests] and 79.4 nM [mean of 4 tests]; in [42], 2.05 nM [mean of 3 tests] and 115 nM [mean of 4 tests]; in [43], 0.134 nM, 51 nM, < 10.7 nM; in experiment [44], 5.21 nM, 5.85 µM, 5.91 µM. Moreover, the TGI in experiment [45] was 1.01 nM [mean of 3 tests] and 0.0597 nM [mean of 4 tests] and 146 nM [mean of 6 tests]; in experiment [46], 0.0265 nM, 9.41 µM, 2.6 µM; in experiment [47] it was 0.362, 0.532, 227, 12.1 nM; in experiment [4], 0.143 nM [mean of 3 tests] and 0.0462 nM [mean of 4 tests] and 11.4 nM [mean of 6 tests]; in experiment [48], 0.474, 0.294, 13.9, 15 nM; in [5], 0.0251, 0.586, 24.5, 215 nM. Moreover, the TGI in experiment [49] is 0.013 nM [mean of 3 tests] and 0.0258 nM, 7.89 nM [mean of 4 tests]; in experiment [50], 1.12 nM, 460 nM, 3.7 µM; in experiment [51], 1.4 nM, 712 nM, 1.6 µM; in experiment [52], 0.557 nM, 611 nM, 1.08 µM; in [53], 0.0725 nM and 18.4 nM; in experiment [54] it was 0.0138 nM, 0.0238 nM, 5.14 nM. Further, the TGI in [55] was 0.0685 nM [mean of 3 tests] and 0.0173 nM [mean of 4 tests] and 6.14 nM [mean of 6 tests]; in experiment [56] it was 0.0976, 0.642, 37.4, 58.5 nM; in [57], 0.521 nM, 7.06 µM, 43.2 µM; in [58], 0.898 nM and 12.3 nM; in experiment [59], 0.692 nM, 1.71 nM, 11.6 µM, 39.5 µM; in experiment [60], 0.162 nM, 19.8 µM, 3.05 µM. In addition, in [61], the TGI is 0.365 nM, 249 nM, < 14 nM. Further, the GI50 in experiment [30] is 0.0129 nM [mean of 4 tests] and 5.02 nM [mean of 5 tests]; in experiment [38], 0.00394 nM [mean of 4 tests] and 2.83 nM [mean of 5 tests].
